Residue numbers refer to the chain shown, from its start. Results are given in words; binding and its absence hold for the method and conditions named. For part of these data: Binding seen in cells or lysates may run through a third protein. Some binding calls cover weakened binding; strength is not graded here. For part of these data: Sequences can lack the tags named with a protein. Each block holds one molecule with its values, some of them ahead of it.
Tests used:
[1] = molecular target: endogenous VAPB (mouse brain) (mouse (endogenous in brain)) (UniProt Q9QY76); assay: co-IP; endogenous VAPB immunoprecipitated from mouse brain extracts with anti-VAPB antibodies cross-linked to Protein A-Sepharose, uncoupled beads as control; buffer A, 4°C
[2] = molecular target: recombinant full-length Flag-FAF1 expressed in bacteria (human) (UniProt Q9UNN5); assay: condition: 0.5 μg VAPB with 2 μg Flag-FAF1 in 400 μl; pull-down; 2 μg recombinant Flag-FAF1 mixed with 0.5 μg recombinant VAPB (1 to 210) in 400 μl buffer B (50 mM HEPES/KOH pH 7.5, 60 mM KOAc, 5 mM MgCl2, 5% glycerol, 0.1% Triton X-100), 30 min at 4°C, then anti-Flag beads 30 min at 4°C …; both purified
[3] = molecular target: Flag-VAPB full length wild type (human) (UniProt O95292); assay: co-IP; anti-Flag beads on lysates of HeLa cells expressing Flag-VAPB; immunoblot
[4] = molecular target: T1, Flag-RAB3GAP1 wild type (human) (UniProt Q15042); assay: co-IP; anti-Flag M2 beads on lysates of U2OS cells expressing the Flag-tagged bait (transfected or tetracycline-induced); buffer A (50 mM HEPES/KOH pH 7.2, 5 mM Mg(OAc)2, 70 mM KOAc, 0.2% Triton X-100, 10% glycerol, 0.2 mM EDTA), 4°C, 2 hr; endogenous prey by immunoblot; cells untreated, treated with MG132 or with siRNA (FAF1, p97, ASNA1, luciferase) as indicated
T1 sequence: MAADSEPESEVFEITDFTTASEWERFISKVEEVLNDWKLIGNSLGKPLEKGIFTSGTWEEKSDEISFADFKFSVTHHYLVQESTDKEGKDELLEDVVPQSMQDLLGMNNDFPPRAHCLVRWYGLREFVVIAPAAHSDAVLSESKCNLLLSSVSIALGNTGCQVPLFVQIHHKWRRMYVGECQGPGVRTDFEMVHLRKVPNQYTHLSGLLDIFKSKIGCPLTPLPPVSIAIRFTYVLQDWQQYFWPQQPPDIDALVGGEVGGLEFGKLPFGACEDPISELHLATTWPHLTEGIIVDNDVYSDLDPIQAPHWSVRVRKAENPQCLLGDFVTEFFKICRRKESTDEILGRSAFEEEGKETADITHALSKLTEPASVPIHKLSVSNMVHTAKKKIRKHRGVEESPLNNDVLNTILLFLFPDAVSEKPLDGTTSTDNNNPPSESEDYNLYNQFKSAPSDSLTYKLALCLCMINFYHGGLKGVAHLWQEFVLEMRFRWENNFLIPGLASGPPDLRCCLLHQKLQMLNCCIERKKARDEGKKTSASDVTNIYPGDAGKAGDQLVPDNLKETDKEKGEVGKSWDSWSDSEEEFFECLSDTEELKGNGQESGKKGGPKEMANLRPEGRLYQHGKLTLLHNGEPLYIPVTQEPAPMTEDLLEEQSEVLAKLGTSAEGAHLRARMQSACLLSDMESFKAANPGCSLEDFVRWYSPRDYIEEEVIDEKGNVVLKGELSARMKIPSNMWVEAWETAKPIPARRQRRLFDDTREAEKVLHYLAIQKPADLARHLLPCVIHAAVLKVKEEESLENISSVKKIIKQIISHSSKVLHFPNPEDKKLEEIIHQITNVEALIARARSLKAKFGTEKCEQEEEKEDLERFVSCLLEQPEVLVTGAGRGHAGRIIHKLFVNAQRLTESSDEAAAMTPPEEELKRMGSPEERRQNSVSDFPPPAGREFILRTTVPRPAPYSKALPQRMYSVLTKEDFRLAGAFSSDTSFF

Sequences of proteins named here, by UniProt entry; tags and fusion partners are left off. A change or cut given only in a name is not applied to a line headed by its entry. A line that says so, or that is headed by a name, gives the form on record, which may keep a tag or linker.
UniProt Q9QY76: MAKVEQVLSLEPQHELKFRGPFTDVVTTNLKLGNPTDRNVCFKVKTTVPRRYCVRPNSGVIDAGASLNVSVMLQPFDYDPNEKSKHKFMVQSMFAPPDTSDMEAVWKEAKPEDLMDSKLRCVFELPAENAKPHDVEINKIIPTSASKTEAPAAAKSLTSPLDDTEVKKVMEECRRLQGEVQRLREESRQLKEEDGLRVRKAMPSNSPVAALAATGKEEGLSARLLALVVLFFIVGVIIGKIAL
UniProt Q9UNN5: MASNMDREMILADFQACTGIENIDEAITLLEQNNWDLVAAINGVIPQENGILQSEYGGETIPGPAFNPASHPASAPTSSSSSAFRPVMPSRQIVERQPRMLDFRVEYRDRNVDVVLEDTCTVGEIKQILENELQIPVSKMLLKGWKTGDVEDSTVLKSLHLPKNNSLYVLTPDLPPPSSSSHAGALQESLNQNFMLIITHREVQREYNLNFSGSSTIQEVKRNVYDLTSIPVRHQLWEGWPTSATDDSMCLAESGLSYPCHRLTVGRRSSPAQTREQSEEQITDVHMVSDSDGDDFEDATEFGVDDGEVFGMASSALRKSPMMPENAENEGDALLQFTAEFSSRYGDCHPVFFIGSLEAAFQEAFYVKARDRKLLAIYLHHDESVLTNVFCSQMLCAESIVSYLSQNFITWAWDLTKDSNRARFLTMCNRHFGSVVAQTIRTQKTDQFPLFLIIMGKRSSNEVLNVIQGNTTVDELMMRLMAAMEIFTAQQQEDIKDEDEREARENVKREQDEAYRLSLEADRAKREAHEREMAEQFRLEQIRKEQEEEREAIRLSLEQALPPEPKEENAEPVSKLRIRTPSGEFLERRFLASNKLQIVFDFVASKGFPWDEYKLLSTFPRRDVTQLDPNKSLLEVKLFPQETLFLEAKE
UniProt O95292: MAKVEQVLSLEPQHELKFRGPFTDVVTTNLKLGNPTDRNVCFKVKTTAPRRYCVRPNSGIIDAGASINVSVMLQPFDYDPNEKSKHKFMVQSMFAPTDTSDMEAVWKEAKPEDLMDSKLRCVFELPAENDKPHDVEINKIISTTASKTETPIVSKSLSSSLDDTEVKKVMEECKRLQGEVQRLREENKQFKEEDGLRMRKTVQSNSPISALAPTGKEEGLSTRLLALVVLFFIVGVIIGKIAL
recombinant VAPB (1 to 210) K87D M89D (O95292-1, form named): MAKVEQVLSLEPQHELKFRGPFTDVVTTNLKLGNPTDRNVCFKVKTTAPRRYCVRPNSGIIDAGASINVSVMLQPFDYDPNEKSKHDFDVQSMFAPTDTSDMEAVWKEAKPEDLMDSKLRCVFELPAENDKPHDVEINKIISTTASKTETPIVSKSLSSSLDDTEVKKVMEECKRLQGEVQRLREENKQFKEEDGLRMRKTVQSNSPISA
UniProt O54984: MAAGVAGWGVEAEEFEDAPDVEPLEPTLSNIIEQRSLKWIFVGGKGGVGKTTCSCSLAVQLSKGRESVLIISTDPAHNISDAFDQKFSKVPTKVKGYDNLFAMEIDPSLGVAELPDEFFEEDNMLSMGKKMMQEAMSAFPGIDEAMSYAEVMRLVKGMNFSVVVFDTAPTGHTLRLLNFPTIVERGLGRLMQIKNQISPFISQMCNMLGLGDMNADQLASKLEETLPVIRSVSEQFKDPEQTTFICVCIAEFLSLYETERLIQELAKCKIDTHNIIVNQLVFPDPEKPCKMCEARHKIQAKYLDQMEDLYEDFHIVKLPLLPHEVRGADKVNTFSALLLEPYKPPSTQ

[5] = molecular target: T2, Flag-RAB3GAP1 F585A/F586A (human) (UniProt Q15042); assay: as above
T2 sequence: T1 sequence with F585A, F586A

[6] = molecular target: Flag-VAPB full length wild type (human) (UniProt O95292); assay: as above
[7] = molecular target: Flag-VAPB full length K87D M89D (human) (UniProt O95292); assay: as above
[8] = molecular target: T3, Flag-VAPA wild type (human) (UniProt Q9P0L0); assay: as above
T3 sequence: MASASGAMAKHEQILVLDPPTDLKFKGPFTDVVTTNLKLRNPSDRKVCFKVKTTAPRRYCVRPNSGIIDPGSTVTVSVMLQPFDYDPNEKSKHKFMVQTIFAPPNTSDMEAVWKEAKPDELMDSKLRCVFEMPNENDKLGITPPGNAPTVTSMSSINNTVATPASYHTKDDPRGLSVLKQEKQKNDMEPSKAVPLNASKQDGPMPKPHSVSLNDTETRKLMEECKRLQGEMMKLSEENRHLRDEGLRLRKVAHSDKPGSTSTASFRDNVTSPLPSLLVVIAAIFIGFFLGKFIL

binding [1]: binds
Molecule: endogenous ASNA1 (mouse brain) (from UniProt O54984 1-348)

binding [2]: no binding
Molecule: recombinant VAPB (1 to 210) K87D M89D (from UniProt O95292-1 1-210) (domain or fragment)

The remaining lines, values behind:

B1: endogenous RAB3GAP2 (human cells) (protein, UniProt Q9H2M9 1-1393)
chain: MACSIVQFCYFQDLQAARDFLFPHLREEILSGALRRDPSKSTDWEDDGWGAWEENEPQEPEEEGNTCKTQKTSWLQDCVLSLSPTNDLMVIAREQKAVFLVPKWKYSDKGKEEMQFAVGWSGSLNVEEGECVTSALCIPLASQKRSSTGRPDWTCIVVGFTSGYVRFYTENGVLLLAQLLNEDPVLQLKCRTYEIPRHPGVTEQNEELSILYPAAIVTIDGFSLFQSLRACRNQVAKAAASGNENIQPPPLAYKKWGLQDIDTIIDHASVGIMTLSPFDQMKTASNIGGFNAAIKNSPPAMSQYITVGSNPFTGFFYALEGSTQPLLSHVALAVASKLTSALFNAASGWLGWKSKHEEEAVQKQKPKVEPATPLAVRFGLPDSRRHGESICLSPCNTLAAVTDDFGRVILLDVARGIAIRMWKGYRDAQIGWIQTVEDLHERVPEKADFSPFGNSQGPSRVAQFLVIYAPRRGILEVWSTQQGPRVGAFNVGKHCRLLYPGYKIMGLNNVTSQSWQPQTYQICLVDPVSGSVKTVNVPFHLALSDKKSERAKDMHLVKKLAALLKTKSPNLDLVETEIKELILDIKYPATKKQALESILASERLPFSCLRNITQTLMDTLKSQELESVDEGLLQFCANKLKLLQLYESVSQLNSLDFHLDTPFSDNDLALLLRLDEKELLKLQALLEKYKQENTRTNVRFSDDKDGVLPVKTFLEYLEYEKDVLNIKKISEEEYVALGSFFFWKCLHGESSTEDMCHTLESAGLSPQLLLSLLLSVWLSKEKDILDKPQSICCLHTMLSLLSKMKVAIDETWDSQSVSPWWQQMRTACIQSENNGAALLSAHVGHSVAAQISNNMTEKKFSQTVLGADSEALTDSWEALSLDTEYWKLLLKQLEDCLILQTLLHSKGNTQTSKVSSLQAEPLPRLSVKKLLEGGKGGIADSVAKWIFKQDFSPEVLKLANEERDAENPDEPKEGVNRSFLEVSEMEMDLGAIPDLLHLAYEQFPCSLELDVLHAHCCWEYVVQWNKDPEEARFFVRSIEHLKQIFNAHVQNGIALMMWNTFLVKRFSAATYLMDKVGKSPKDRLCRRDVGMSDTAMTSFLGSCLDLLQILMEADVSRDEIQVPVLDTEDAWLSVEGPISIVELALEQKHIHYPLVEHHSILCSILYAVMRFSLKTVKPLSLFDSKGKNAFFKDLTSIQLLPSGEMDPNFISVRQQFLLKVVSAAVQAQHSATKVKDPTEEATPTPFGKDQDWPALAVDLAHHLQVSEDVVRRHYVGELYNYGVDHLGEEAILQVHDKEVLASQLLVLTGQRLAHALLHTQTKEGMELLARLPPTLCTWLKAMDPQDLQNTEVPIATTAKLVNKVIELLPEKHGQYGLALHLIEAVEAISLPSL
binding [3]: binds | binding [4]: binds | binding [5]: binds

B2: endogenous WDR44 (human cells) (protein, UniProt Q5JSH3 1-913)
chain: MASESDTEEFYDAPEDVHLGGGYPVGSPGKVGLSTFKETENTAYKVGNESPVQELKQDVSKKIIESIIEESQKVLQLEDDSLDSKGKELSDQATASPIVARTDLSNIPGLLAIDQVLPEESQKAESQNTFEETELELKKCFPSDETCEKPVDETTKLTQTSSTEQLNVLETETEVLNKEAVEVKGGGDVLEPVSSDSLSTKDFAAVEEVAPAKPPRHLTPEPDIVASTKKPVPARPPPPTNFPPPRPPPPSRPAPPPRKRKSELEFETLKTPDIDVPKENITSDSLLTASMASESTVKDSQPSLDLASATSGDKIVTAQENGKAPDGQTVAGEVMGPQRPRSNSGRELTDEEILASVMIKNLDTGEEIPLSLAEEKLPTGINPLTLHIMRRTKEYVSNDAAQSDDEEKLQSQPTDTDGGRLKQKTTQLKKFLGKSVKRAKHLAEEYGERAINKVKSVRDEVFHTDQDDPSSSDDEGMPYTRPVKFKAAHGFKGPYDFDQIKVVQDLSGEHMGAVWTMKFSHCGRLLASAGQDNVVRIWALKNAFDYFNNMRMKYNTEGRVSPSPSQESLSSSKSDTDTGVCSGTDEDPDDKNAPFRQRPFCKYKGHTADLLDLSWSKNYFLLSSSMDKTVRLWHISRRECLCCFQHIDFVTAIAFHPRDDRYFLSGSLDGKLRLWNIPDKKVALWNEVDGQTKLITAANFCQNGKYAVIGTYDGRCIFYDTEHLKYHTQIHVRSTRGRNKVGRKITGIEPLPGENKILVTSNDSRIRLYDLRDLSLSMKYKGYVNSSSQIKASFSHDFTYLVSGSEDKYVYIWSTYHDLSKFTSVRRDRNDFWEGIKAHNAVVTSAIFAPNPSLMLSLDVQSEKSEGNEKSEDAEVLDATPSGIMKTDNTEVLLSADFTGAIKVFVNKRKNVS
binding [3]: binds | binding [6]: binds | binding [7]: no binding | binding [8]: binds

Source: paper PMC4068158
